Assay results from publication PMC9911399, “Two distinct binding modes provide the RNA-binding protein RbFox with extraordinary sequence specificity”.
Substitutions are numbered along the chain they refer to; changes in the protein carry UniProt numbers. This is one part of the list.

T1: RBFOX1 RRM RbFoxmut (Fox-RRM*) (Homo sapiens, UniProt Q9NWB1 109-208, R118D;E147R;N151S;E152T)
T1 sequence: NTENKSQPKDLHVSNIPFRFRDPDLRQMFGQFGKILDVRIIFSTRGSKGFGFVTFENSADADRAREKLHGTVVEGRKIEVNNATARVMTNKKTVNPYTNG

B1: UGGGGCA (DNA:RNA)
RNA: GGGAGACCGGAAUUCAGAUUGUCCUGGGGCAUUAAAUCCCGUCGUAGCCACCA
DNA 1: CAATCTGAATTCCGGTCTCCC
DNA 2: TGGTGGCTACGACGGGATT
B2: CUGGGCC (DNA:RNA)
RNA: B1 RNA with U25C, G26U, A31C
DNA 1: CAATCTGAATTCCGGTCTCCC
DNA 2: TGGTGGCTACGACGGGATT
B3: UGAAUAU (DNA:RNA)
RNA: B1 RNA with G27A, G28A, G29U, C30A, A31U
DNA 1: CAATCTGAATTCCGGTCTCCC
DNA 2: TGGTGGCTACGACGGGATT
B4: UUUUAUG (DNA:RNA)
RNA: B1 RNA with G26U, G27U, G28U, G29A, C30U, A31G
DNA 1: CAATCTGAATTCCGGTCTCCC
DNA 2: TGGTGGCTACGACGGGATT
B5: CUUGUUA (DNA:RNA)
RNA: B1 RNA with U25C, G26U, G27U, G29U, C30U
DNA 1: CAATCTGAATTCCGGTCTCCC
DNA 2: TGGTGGCTACGACGGGATT
B6: CCUCAGA (DNA:RNA)
RNA: B1 RNA with U25C, G26C, G27U, G28C, G29A, C30G
DNA 1: CAATCTGAATTCCGGTCTCCC
DNA 2: TGGTGGCTACGACGGGATT
B7: CUCUGCU (DNA:RNA)
RNA: B1 RNA with U25C, G26U, G27C, G28U, A31U
DNA 1: CAATCTGAATTCCGGTCTCCC
DNA 2: TGGTGGCTACGACGGGATT
B8: UCUUUCA (DNA:RNA)
RNA: B1 RNA with G26C, G27U, G28U, G29U
DNA 1: CAATCTGAATTCCGGTCTCCC
DNA 2: TGGTGGCTACGACGGGATT
B9: GGAGGUA (DNA:RNA)
RNA: B1 RNA with U25G, G27A, C30U
DNA 1: CAATCTGAATTCCGGTCTCCC
DNA 2: TGGTGGCTACGACGGGATT

Biological target: T1, RBFOX1 RRM RbFoxmut (Fox-RRM*)
Assay: EMSA; HiTS-Eq, 1 nM pool, 10 min; buffer printed only for the single-RNA assays: 10 mM Tris pH 7.5, 150 mM NaCl, 3.4 mM EDTA, 0.001% NP-40, 30 C
Details: tags: His6 N-terminal (pET28a); label: 5' 32P
In short: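 Purified wild-type or mutant RbFox RRM at increasing concentrations was equilibrated with 1 nM of 5′-radiolabelled RNA carrying 7 randomized nucleotides for 10 min in 50 µL. Unbound RNA was separated by 8% native PAGE and sequenced. Relative association constants came from read-count changes of each RNA species compared with the control reaction, normalised to the cognate motif.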

Binder	binding signal
B1	0.101 KA relative to UGCAUGU
B2	0.275 KA relative to UGCAUGU
B3	0.0814 KA relative to UGCAUGU
B4	0.149 KA relative to UGCAUGU
B5	0.134 KA relative to UGCAUGU
B6	0.109 KA relative to UGCAUGU
B7	0.101 KA relative to UGCAUGU
B8	0.0623 KA relative to UGCAUGU
B9	0.121 KA relative to UGCAUGU
